Measured values reported in publication PMC4336329 (PLoS ONE, 2015).
About 14,000 (4.5%) of roughly 310,000 compounds showed an effect of 50% or more. The effect is printed as a negative number. Some of the results follow.
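Further: peak tail current of the secondary pulse compared with the same well before compound.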

The compounds below were run against human ether-à-go-go-related gene (hERG) potassium channel (human, UniProt Q12809) (assay: primary screen, population patch clamp on CHO cells stably expressing hERG).
human ether-à-go-go-related gene (hERG) potassium channel, sequence (Q12809 whole entry, looked up): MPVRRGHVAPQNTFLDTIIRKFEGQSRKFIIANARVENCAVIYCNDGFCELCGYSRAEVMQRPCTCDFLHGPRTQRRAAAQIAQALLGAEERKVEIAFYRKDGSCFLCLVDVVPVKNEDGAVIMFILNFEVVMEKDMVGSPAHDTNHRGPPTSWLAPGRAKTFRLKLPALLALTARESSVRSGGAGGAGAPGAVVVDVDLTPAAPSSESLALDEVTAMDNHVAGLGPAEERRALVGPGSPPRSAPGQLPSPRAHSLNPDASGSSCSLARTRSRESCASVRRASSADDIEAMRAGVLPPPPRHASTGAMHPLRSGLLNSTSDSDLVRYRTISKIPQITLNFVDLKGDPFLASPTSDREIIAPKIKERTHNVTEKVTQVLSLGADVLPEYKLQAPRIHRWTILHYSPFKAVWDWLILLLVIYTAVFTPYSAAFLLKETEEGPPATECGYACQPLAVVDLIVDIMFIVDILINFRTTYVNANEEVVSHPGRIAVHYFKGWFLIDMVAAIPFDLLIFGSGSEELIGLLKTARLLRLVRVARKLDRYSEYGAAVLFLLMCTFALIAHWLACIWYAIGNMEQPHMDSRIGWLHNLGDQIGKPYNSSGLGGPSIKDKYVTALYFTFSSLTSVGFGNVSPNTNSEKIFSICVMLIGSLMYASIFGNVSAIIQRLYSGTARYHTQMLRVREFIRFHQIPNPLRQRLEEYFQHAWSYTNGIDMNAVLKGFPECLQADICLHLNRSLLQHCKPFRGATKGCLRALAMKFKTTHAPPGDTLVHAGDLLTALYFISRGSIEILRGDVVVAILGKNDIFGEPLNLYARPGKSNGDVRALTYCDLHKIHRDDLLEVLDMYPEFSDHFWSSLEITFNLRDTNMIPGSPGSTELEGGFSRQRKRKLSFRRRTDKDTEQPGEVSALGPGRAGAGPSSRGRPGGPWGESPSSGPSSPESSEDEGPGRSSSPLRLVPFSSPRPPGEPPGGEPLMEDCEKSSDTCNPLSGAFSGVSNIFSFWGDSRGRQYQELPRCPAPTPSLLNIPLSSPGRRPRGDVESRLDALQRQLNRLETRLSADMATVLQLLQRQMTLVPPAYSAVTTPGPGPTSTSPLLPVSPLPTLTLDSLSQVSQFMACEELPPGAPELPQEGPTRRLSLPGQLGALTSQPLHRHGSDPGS
With `COc1ccc(N2C(=O)CC(Sc3ncccc3C(=O)O)C2=O)cc1` (stereo not shown) the “hERG current change (%, negative = inhibition) at 10uM” value was 10.3%.
For `Cc1ccc(N/N=C/c2ccc3c(c2)OCCO3)cc1Cl`, the “hERG current change (%, negative = inhibition) at 10uM” value was 0.67%.
For `Cc1onc(-c2ccccc2)c1C(=O)N/N=C/c1c[nH]c2ccccc12`, the “hERG current change (%, negative = inhibition) at 10uM” value was -6.69%.
For `c1ccc(CCc2nn3c(C4COc5ccccc5O4)nnc3s2)cc1` (stereo not shown), the “hERG current change (%, negative = inhibition) at 10uM” value was -1.79%.
In the case of `Cc1nc2cc(NS(=O)(=O)c3c(C)c(C)cc(C)c3C)ccc2s1`, the “hERG current change (%, negative = inhibition) at 10uM” value was 3.47%.
With `Cc1ccc(Nc2nc(C(=O)NCC3CCCO3)cs2)cc1` (stereo not shown) the “hERG current change (%, negative = inhibition) at 10uM” value was -6.3%.
`COc1ccccc1CNC(=O)CN(c1ccc(C)cc1)S(=O)(=O)c1c(C)nn(C)c1C` was tested, and the “hERG current change (%, negative = inhibition) at 10uM” value was -24.1%.
For `S=c1nc(C23CC4CC(CC(C4)C2)C3)[nH][nH]1`, the “hERG current change (%, negative = inhibition) at 10uM” value was 11.8%.
For `COC(CC(=O)NNC(=S)Nc1ccccc1)OC`, the “hERG current change (%, negative = inhibition) at 10uM” value was 7.09%.
For `CCc1ccc(C(=O)CSc2ncn[nH]2)cc1`, the “hERG current change (%, negative = inhibition) at 10uM” value was -18.7%.
For `COc1ccc2cc(Br)ccc2c1CC(=O)N(C)C`, the “hERG current change (%, negative = inhibition) at 10uM” value was 10.7%.
With `CCCS(=O)(=O)c1c(S(=O)(=O)CCC)c2c(C(N)=O)cccn2c1C(=O)c1ccc(F)cc1` the “hERG current change (%, negative = inhibition) at 10uM” value was 5.3%.
In the case of `COc1ccc(S(=O)(=O)Nc2c(F)cccc2F)cc1`, the “hERG current change (%, negative = inhibition) at 10uM” value was 0.21%.
With `CC(C)(C)n1cc(C(=O)c2ccccc2OCCCF)cn1` the “hERG current change (%, negative = inhibition) at 10uM” value was 3.75%.
With `O=C(COc1cccc(Cl)c1)NCC(c1cccs1)N1CCOCC1` (stereo not shown) the “hERG current change (%, negative = inhibition) at 10uM” value was -9.84%.
In the case of `CC1CCCN(S(=O)(=O)c2ccc(-c3ccc(=O)[nH]n3)o2)C1` (stereo not shown), the “hERG current change (%, negative = inhibition) at 10uM” value was 11.2%.
For `CCOc1cc(NC(=S)Nc2cccc(OC)c2)c(OCC)cc1NC(=O)C(C)C`, the “hERG current change (%, negative = inhibition) at 10uM” value was 1.89%.
In the case of `COc1ccccc1CNCc1cc(Br)ccc1OC.O=C(O)C(=O)O`, the “hERG current change (%, negative = inhibition) at 10uM” value was -37.1%.
For `Cc1ccc(CNC(=O)CN2C(=O)NC3(CC(C)CC(C)(C)C3)C2=O)cc1` (stereo not shown), the “hERG current change (%, negative = inhibition) at 10uM” value was -3.14%.
`COc1ccc(CCNC(=O)c2ccc3c(c2)N(Cc2ccccc2)CCS3)cc1OC` was tested, and the “hERG current change (%, negative = inhibition) at 10uM” value was 17.1%.
For `O=C(COC(=O)CCSc1ccc(Cl)cc1)NCc1ccccc1`, the “hERG current change (%, negative = inhibition) at 10uM” value was 1.06%.
In the case of `O=C(O)c1ccc(/C=C/c2nc3sc4c(c3c(=O)[nH]2)CCC4)cc1`, the “hERG current change (%, negative = inhibition) at 10uM” value was 14.2%.
For `Cc1ccc2[nH]cc(S(=O)(=O)c3ccc(F)cc3)c(=O)c2c1`, the “hERG current change (%, negative = inhibition) at 10uM” value was 15.7%.
In the case of `Cc1ccccc1CC1(CO)CCCN(Cc2c(C)nn(C)c2Cl)C1` (stereo not shown), the “hERG current change (%, negative = inhibition) at 10uM” value was -47.2%.
`CCCCCCCCCCOC(=O)C[N+](C)(C)C/C=C(/C)Cl.[Br-]` was tested, and the “hERG current change (%, negative = inhibition) at 10uM” value was -33.7%.
With `COc1ccc(S(=O)(=O)NC(C(=O)NCCc2ccccn2)C(C)C)cc1` (stereo not shown) the “hERG current change (%, negative = inhibition) at 10uM” value was 5.69%.
With `CC1(C)CC(NS(=O)(=O)OCC(Cl)(Cl)Cl)c2cc(C#N)ccc2O1` (stereo not shown) the “hERG current change (%, negative = inhibition) at 10uM” value was 17.6%.
`CC(C)CNC(=O)c1ccccc1-c1ccccc1C(=O)O` was tested, and the “hERG current change (%, negative = inhibition) at 10uM” value was 19.5%.
In the case of `CN(C)Cc1c(C(=O)N/N=C/c2ccc(-c3ccccc3)cc2)nnn1-c1nonc1N`, the “hERG current change (%, negative = inhibition) at 10uM” value was -1.78%.
In the case of `O=C(c1cccc(S(=O)(=O)N2CCCCCC2)c1)N1CCN(c2ccccc2F)CC1`, the “hERG current change (%, negative = inhibition) at 10uM” value was -58%.
For `C=CCn1c(CCC(O)COCCC)n[nH]c1=S` (stereo not shown), the “hERG current change (%, negative = inhibition) at 10uM” value was 14.2%.
With `CC1CCN(Cc2csc(N)n2)CC1` the “hERG current change (%, negative = inhibition) at 10uM” value was -1.14%.
For `CCCCC(=O)Nc1cccc(NC(=S)NC(=O)Cc2ccccc2)c1`, the “hERG current change (%, negative = inhibition) at 10uM” value was 3.39%.
With `O=C(Nc1ccc2c(c1)OCO2)C1(S(=O)(=O)c2ccc(Cl)cc2)CC1` the “hERG current change (%, negative = inhibition) at 10uM” value was -26.9%.
For `CC(C)NC(=S)NN=C1CCCCCCCCCCC1`, the “hERG current change (%, negative = inhibition) at 10uM” value was 7.36%.
`O=c1[nH]c(=O)n(Cc2ccccc2)c(O)c1C=NCCN1CCOCC1` was tested, and the “hERG current change (%, negative = inhibition) at 10uM” value was 7.22%.
With `CC(=O)N1CCCc2cc(S(=O)(=O)CCC(=O)N3CCN(c4ccccc4)CC3)ccc21` the “hERG current change (%, negative = inhibition) at 10uM” value was 5.9%.
In the case of `ON1C(c2ccccc2C(F)(F)F)N(O)[C@H]2CCCC[C@H]21` (stereo partly shown), the “hERG current change (%, negative = inhibition) at 10uM” value was 11.8%.
For `Cc1cccc(C)c1NC(=O)CSC(=S)N1CCCC1`, the “hERG current change (%, negative = inhibition) at 10uM” value was 6.66%.
For `Brc1ccccc1CN1CCN(Cc2c[nH]c3ccccc23)CC1.O=C(O)C(=O)O`, the “hERG current change (%, negative = inhibition) at 10uM” value was -20.1%.
`Cc1cc(C)nc(SCc2nnc(SCc3ccccc3Cl)o2)n1` was tested, and the “hERG current change (%, negative = inhibition) at 10uM” value was -24.6%.
`CCO[C@@H]1OC(C(N)=O)=C[C@H](c2ccc3c(c2)OCO3)[C@H]1CCCO` was tested, and the “hERG current change (%, negative = inhibition) at 10uM” value was 4.15%.
`CC(=O)c1ccc(N2CCN(C(=S)NCCCN(C)C)CC2)cc1` was tested, and the “hERG current change (%, negative = inhibition) at 10uM” value was 2.47%.
With `CCNC(=O)CSc1nc(-c2ccccc2)cs1` the “hERG current change (%, negative = inhibition) at 10uM” value was -4.81%.
In the case of `CCn1nc(C)c(/C=N/NC(=O)Cn2cncn2)c1C`, the “hERG current change (%, negative = inhibition) at 10uM” value was 17.4%.
For `CCOc1ccc(NC(=O)CC2C(=O)Nc3ccccc3N2C(=O)c2ccccc2)cc1` (stereo not shown), the “hERG current change (%, negative = inhibition) at 10uM” value was -8.85%.
In the case of `COc1ccc(C(=O)NCC2OCCc3ccccc32)c(O)c1` (stereo not shown), the “hERG current change (%, negative = inhibition) at 10uM” value was 12.4%.
`Cc1ccc2c(C)c(C(=O)N(C)C(C)c3ccon3)oc2c1C` (stereo not shown) was tested, and the “hERG current change (%, negative = inhibition) at 10uM” value was -19.5%.
In the case of `CCc1cc(=O)oc2cc(C)cc(OC(C)C(=O)NC(Cc3c[nH]c4ccc(O)cc34)C(=O)O)c12` (stereo not shown), the “hERG current change (%, negative = inhibition) at 10uM” value was -1.41%.
`S=C(NCCCN1CCOCC1)Nc1ccc(-c2nc3ccccc3[nH]2)cc1` was tested, and the “hERG current change (%, negative = inhibition) at 10uM” value was -11.7%.
With `C#CCO[C@@H]1C[C@H](n2cnc3c(NC(=O)c4ccccc4)ncnc32)O[C@@H]1CO` the “hERG current change (%, negative = inhibition) at 10uM” value was 18.4%.
For `O=C(O)c1ccccc1NC(=O)C(c1ccccc1)c1ccccc1`, the “hERG current change (%, negative = inhibition) at 10uM” value was 27.4%.
With `O=C(COC(=O)c1ccc([N+](=O)[O-])o1)c1ccccc1` the “hERG current change (%, negative = inhibition) at 10uM” value was 14.7%.
`Cc1ccc(CNC(=O)C2CC(c3ccccc3F)=NO2)cc1` (stereo not shown) was tested, and the “hERG current change (%, negative = inhibition) at 10uM” value was -3.18%.
`O=C(COc1cc(Cl)ccc1Cl)Nc1ccc2c(c1)CCC2` was tested, and the “hERG current change (%, negative = inhibition) at 10uM” value was 9.57%.
With `FC(F)(F)c1ccc(NC2=NCCCS2)cc1` the “hERG current change (%, negative = inhibition) at 10uM” value was 4.96%.
`CCCC(=O)Nc1ccc2c(c1)nc(CN1CCCCC1)n2C` was tested, and the “hERG current change (%, negative = inhibition) at 10uM” value was 2.55%.
With `CN1CCN(S(=O)(=O)c2cccc(C(=O)Nc3ccc(Br)cc3Br)c2)CC1` the “hERG current change (%, negative = inhibition) at 10uM” value was -44.2%.
